# The supplement of paper PMC7826260
# The other results are listed elsewhere or left out. One pool of 16,384 single-stranded DNAs met each Rep nickase domain in vitro (3 µM enzyme, 1 h, 37 °C); shown is the middle of each 90-letter strand. Values are log2 of uncut reads against the no-enzyme pool; uncut sequences lie near 0, cut ones below; no hit call is given. The scaling is to total reads, so uncut sequences can rise above 0 when many others are cut.
# Experiments:
# Experiment in all cases: uncleaved DNA left, log2 of reads against the no-enzyme library (log2 ratio); higher = less cleavage (more negative = more Rep cleavage of the k-mer); sequences stand for … in CTCGTCCG…ACCGGAGA
# [1] = tested on: T1, Rep nickase domain of Muscovy duck circovirus
# T1 sequence (protein, residues 1-111, tag omitted): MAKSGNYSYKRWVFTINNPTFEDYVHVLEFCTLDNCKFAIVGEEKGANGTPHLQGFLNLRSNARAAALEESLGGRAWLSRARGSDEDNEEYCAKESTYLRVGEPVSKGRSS
# Protocol: (§1)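 A pool of 90-nt single-stranded DNAs with seven random bases just before the constant AC of the nick site (name = the seven bases) was cut by 3 µM recombinant His6-SUMO-tagged Rep nickase domain (300 nM DNA, 50 mM HEPES pH 8.0, 50 mM NaCl, 1 mM MnCl2, 1 h, 37 °C, three replicates). Uncut DNA was amplified and sequenced.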
# [2] = tested on: T2, Rep nickase domain of banana bunchy top virus
# T2 sequence (protein, residues 1-94, tag omitted): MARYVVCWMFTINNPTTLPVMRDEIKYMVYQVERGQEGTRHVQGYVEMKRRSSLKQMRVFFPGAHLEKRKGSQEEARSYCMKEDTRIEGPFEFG
# Protocol: as §1
# [3] = tested on: T3, Rep nickase domain of cabbage leaf curl virus
# T3 sequence (protein, residues 1-116, tag omitted): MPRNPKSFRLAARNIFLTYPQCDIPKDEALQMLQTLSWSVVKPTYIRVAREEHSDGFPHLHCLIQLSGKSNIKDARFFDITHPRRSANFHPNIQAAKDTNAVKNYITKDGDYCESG
# Protocol: as §1
# [4] = tested on: T4, Rep nickase domain of chickpea chlorotic dwarf virus
# T4 sequence (protein, residues 1-124, tag omitted): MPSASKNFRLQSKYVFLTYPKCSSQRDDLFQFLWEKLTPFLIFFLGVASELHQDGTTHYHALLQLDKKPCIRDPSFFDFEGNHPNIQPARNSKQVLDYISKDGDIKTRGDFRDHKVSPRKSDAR
# Protocol: as §1
# [5] = tested on: T5, Rep nickase domain of faba bean necrotic yellows virus
# T5 sequence (protein, residues 1-98, tag omitted): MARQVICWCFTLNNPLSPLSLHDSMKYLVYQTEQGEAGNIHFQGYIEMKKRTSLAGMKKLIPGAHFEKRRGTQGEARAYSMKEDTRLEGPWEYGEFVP
# Protocol: as §1
# [6] = tested on: T6, Rep nickase domain of maize striate mosaic virus
# T6 sequence (protein, residues 1-117, tag omitted): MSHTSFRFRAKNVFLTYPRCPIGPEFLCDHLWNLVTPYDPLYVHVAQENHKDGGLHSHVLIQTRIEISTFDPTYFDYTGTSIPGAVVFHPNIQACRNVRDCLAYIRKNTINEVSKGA
# Protocol: as §1
# [7] = tested on: T7, Rep nickase domain of porcine circovirus 2
# T7 sequence (protein, residues 2-116, tag omitted): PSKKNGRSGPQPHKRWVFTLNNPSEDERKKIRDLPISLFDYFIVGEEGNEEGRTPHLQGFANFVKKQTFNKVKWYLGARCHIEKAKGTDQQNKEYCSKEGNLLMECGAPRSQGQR
# Protocol: as §1
# [8] = tested on: T8, Rep nickase domain of tomato golden mosaic virus
# T8 sequence (protein, residues 1-124, tag omitted): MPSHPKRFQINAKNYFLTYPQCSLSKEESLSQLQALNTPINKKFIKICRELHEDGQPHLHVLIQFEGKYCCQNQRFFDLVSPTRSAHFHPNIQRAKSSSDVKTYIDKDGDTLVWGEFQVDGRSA
# Protocol: as §1
# [9] = tested on: T9, Rep nickase domain of tomato yellow leaf curl virus
# T9 sequence (protein, residues 1-136, tag omitted): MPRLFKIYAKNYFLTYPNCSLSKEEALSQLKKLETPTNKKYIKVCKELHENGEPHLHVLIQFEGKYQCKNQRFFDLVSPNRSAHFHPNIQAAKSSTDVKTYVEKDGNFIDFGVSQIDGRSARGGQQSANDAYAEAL
# Protocol: as §1
# [10] = tested on: T10, Rep nickase domain of wheat dwarf virus
# T10 sequence (protein, residues 1-137, tag omitted): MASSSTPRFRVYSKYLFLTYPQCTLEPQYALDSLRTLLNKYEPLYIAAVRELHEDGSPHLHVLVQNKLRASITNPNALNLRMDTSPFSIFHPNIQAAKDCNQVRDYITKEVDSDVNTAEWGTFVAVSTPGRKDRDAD
# Protocol: as §1
Sequence,uncleaved DNA left (log2) [1],uncleaved DNA left (log2) [2],uncleaved DNA left (log2) [3],uncleaved DNA left (log2) [4],uncleaved DNA left (log2) [5],uncleaved DNA left (log2) [6],uncleaved DNA left (log2) [7],uncleaved DNA left (log2) [8],uncleaved DNA left (log2) [9],uncleaved DNA left (log2) [10]
TACAACT,-0.0269,-0.155,-2.24,-3.21,0.00488,-1.07,-3.15,-0.129,-0.0137,-0.186
ACCCTTC,-0.128,-0.0199,-0.0634,-0.169,0.057,-0.62,0.0899,-0.0217,-0.091,-0.0443
CTTTAAC,-0.131,-0.0629,-0.46,-2.24,-0.122,-0.925,-0.0524,-0.161,-0.0651,-0.0835
TAAATTT,-1.19,-0.911,-4.8,-3.66,-0.108,-3.39,-4.04,-4.26,-0.175,-4.02
CAGGTTC,-0.0719,0.0452,0.0298,0.242,0.00368,0.655,-0.0815,0.0201,-0.119,-0.0248
GTTTTAG,-0.0152,0.0169,0.0146,0.193,0.00142,-0.27,0.201,0.0513,0.0605,0.0354
TCCCAGG,0.116,0.0569,0.5,1.31,0.0242,1.73,0.0498,0.122,-0.0917,-0.0556
TTCCATG,0.0291,0.0117,-0.325,-0.638,-0.0672,-1.19,0.1,-0.0726,-0.177,-0.0474
GAACTCC,0.00141,0.0214,0.14,0.199,0.00693,1.03,0.0178,0.0312,0.0399,0.0513
CATAGTC,-0.0344,-0.19,-0.15,-0.415,0.0161,-1.15,-0.0521,-0.11,-0.184,-0.0778
GCGACCA,-0.0549,0.0757,0.0316,0.412,-0.043,0.639,-0.0524,0.000483,0.0389,0.0551
CAGCCCC,-0.0184,-0.134,0.0226,-0.311,-0.00264,0.0163,-0.264,0.0123,-0.059,-0.0972
GTGTTTC,0.00653,0.109,0.26,0.813,0.0495,1.78,0.0266,0.105,0.0853,0.097
CCTATGA,0.00306,-0.096,-0.0885,0.0658,-0.00469,-0.895,0.0145,-0.063,-0.097,-0.117
TAGAATT,0.0442,-3.22,-2.8,-2.67,-3.09,-0.26,-4.02,-0.309,0.0258,-0.528
TAGGTCT,0.0286,-0.0738,-0.392,-2.48,-0.0874,0.834,-2.93,-0.0603,-0.0384,-0.0651
TCCATTT,-0.0435,-0.0895,-0.0608,-2.13,0.0597,-0.975,-0.319,-0.019,0.000511,-0.0591
CGGCCAT,-0.0163,0.0118,0.586,1.53,0.0122,1.72,0.0849,-0.0894,0.0257,0.0807
ACAATAG,0.147,0.195,-0.517,0.15,0.0662,-0.688,0.285,0.125,0.211,0.105
CAGGACT,0.00275,0.11,0.286,0.949,0.0645,1.4,0.0374,0.00581,0.0888,0.116

Sequence,uncleaved DNA left (log2) [1],uncleaved DNA left (log2) [2],uncleaved DNA left (log2) [3],uncleaved DNA left (log2) [4],uncleaved DNA left (log2) [5],uncleaved DNA left (log2) [6],uncleaved DNA left (log2) [7],uncleaved DNA left (log2) [8],uncleaved DNA left (log2) [9],uncleaved DNA left (log2) [10]
TTACAAA,0.0907,0.153,0.17,-0.997,0.0356,-0.0681,0.033,0.0951,0.126,0.0482
AGAATCC,0.146,0.128,0.458,0.964,0.105,0.6,0.159,0.163,0.125,0.14
AGCGCGT,0.0234,-0.0191,-0.0862,0.181,0.0201,0.548,0.101,0.0153,-0.037,0.0341
TCTGCGG,0.171,-0.0441,0.0562,0.278,-0.0121,0.161,0.0981,0.0331,-0.0764,-0.0204
GCTAATG,-0.0692,-0.0227,-0.312,0.0878,-0.0414,-0.59,0.069,-0.0726,-0.0997,-0.0368
ATTGAAG,0.0205,-0.0408,-0.886,-0.143,0.0304,-0.996,0.095,-0.0126,-0.00206,-0.173
TCGGGAT,0.0474,0.106,0.357,1.64,0.0157,1.98,0.198,0.172,-0.02,0.032
CAGCCGC,-0.0709,-0.142,-0.617,-0.767,-0.119,-0.753,0.00333,-0.209,-0.0904,-0.178
AGCTCCC,0.0477,0.0135,0.241,0.394,0.00818,0.519,-0.0179,0.0142,-0.0186,0.113
GATGGGG,0.0423,0.00695,0.028,0.196,-0.0107,-0.259,0.109,0.0405,-0.0259,-0.107
AGAGCTT,-0.0133,-0.0571,0.281,0.208,-0.0215,1.09,-0.143,0.0303,-0.0998,-0.0423
CGACGTC,0.029,-0.0879,0.0204,0.44,-0.0779,1.19,0.00621,-0.161,-0.21,-0.0375
GGTTGTA,0.00674,-0.0244,0.333,0.79,-0.0656,1.46,0.039,0.0388,-0.0276,-0.000281
CGTCTAT,0.0609,-0.00211,0.196,-0.262,-0.0139,0.0145,-0.0137,-0.0524,0.00622,0.115
TATCATA,0.000946,0.0564,0.0402,-2.02,0.00606,-0.295,-0.183,-0.0736,0.117,0.0131
GTTCATT,0.0265,0.0488,0.413,0.917,0.0835,1.79,-0.17,0.121,0.0803,0.181
GAGTGGT,-0.118,-0.723,0.292,0.441,-0.637,1.2,-3.01,0.114,0.132,0.0595
CGTAATG,0.0321,-0.0196,-0.102,0.499,0.0508,1.02,0.0218,-0.0253,-0.0797,-0.0359
GAGTGCA,0.0866,-0.0327,-0.0764,-0.0942,0.0344,-0.213,-2.52,0.139,0.0226,0.0821
CAGATAG,0.0309,-0.0963,-0.783,-0.429,-0.0632,-1.08,0.0024,-0.104,-0.106,-0.131

Sequence,uncleaved DNA left (log2) [1],uncleaved DNA left (log2) [2],uncleaved DNA left (log2) [3],uncleaved DNA left (log2) [4],uncleaved DNA left (log2) [5],uncleaved DNA left (log2) [6],uncleaved DNA left (log2) [7],uncleaved DNA left (log2) [8],uncleaved DNA left (log2) [9],uncleaved DNA left (log2) [10]
CCGGGAT,0.243,0.0127,0.447,1.61,0.0625,2.06,0.263,0.22,0.0789,0.0835
CGCCCGG,0.0181,-0.0373,0.177,0.843,-0.13,1.05,0.000102,-0.0879,-0.132,-0.0309
CGCCTAC,-0.027,-0.0046,-0.194,-1.35,-0.023,-0.461,-0.16,-0.138,0.00431,0.0492
TTTGTTC,-0.039,-0.151,0.0147,-1.46,-0.0364,-0.655,-0.327,-0.278,-0.0894,-0.189
CAAGTGT,0.111,-0.0112,-0.38,-0.925,0.0409,-0.592,-0.0152,-0.0699,-0.0619,-0.0875
ACGTCGT,-0.0422,-0.0751,-0.567,-0.764,0.0224,-0.922,-0.154,-0.0924,-0.0663,-0.0264
GGAGCAT,0.222,0.272,1.02,2.19,0.183,2.44,0.347,0.208,0.164,0.315
GACACTT,-0.113,-0.265,0.447,-1.47,0.0288,1.58,-0.895,-0.156,0.0165,0.0587
TCAGCCT,-0.0145,-0.00362,-0.18,-2.16,-0.00885,-0.477,-0.108,0.0227,-0.0426,-0.101
TGTATAT,0.124,0.149,0.306,0.378,0.106,0.757,-0.717,-0.043,0.12,0.0725
CAGTGAG,-0.162,-0.182,-0.926,-0.131,-0.139,-0.913,-0.00954,-0.355,-0.101,-0.307
GAGTGTT,-2.35,-2.65,-1.21,-1.87,-2.35,0.64,-3.34,-0.612,0.113,-0.698
AGCGAGC,-0.0406,0.0531,-0.0777,0.346,0.0761,0.226,0.101,0.0471,0.0198,0.0249
TCGAGGT,0.0901,0.0237,0.303,0.862,0.0024,1.28,-0.0308,-0.0117,-0.138,-0.171
TGTGATA,0.101,0.0479,0.286,0.672,0.172,1.44,0.0755,0.0637,0.0094,0.0424
ATCAGTA,-0.0369,-0.00436,-0.206,-1.18,0.0646,-0.932,-0.0398,0.0431,0.0472,0.0862
GTTGGCA,0.0301,0.167,0.381,0.956,0.0807,1.58,0.127,0.162,0.119,0.073
TTTTGAA,-0.128,-0.08,-0.0912,-0.675,0.0174,-0.489,-0.28,-0.0116,-0.0717,-0.0113
CAAATAC,0.0246,-0.123,-0.206,-1.07,-0.0125,-0.952,0.101,-0.00289,-0.0367,-0.0424
AGATGTC,0.11,-0.0633,0.235,0.55,0.085,-0.0379,0.0695,-0.0364,-0.0577,-0.11
